The other results are listed elsewhere or left out.
B1: PhoQ; a variant is named by its letters at X, in order, P23837 (parent)
chain: MKKLLRLFFPLSLRVRFLLATAAVVLVLSLAYGMVALIGYSVSFDKTTFRLLRGESNLFYTLAKWENNKLHVELPENIDKQSPTMTLIYDENGQLLWAQRDVPWLMKMIQPDWLKSNGFHEIEADVNDTSLLLSGDHSIQQQLQEVREDDDDAEMTHSVAVNVYPATSRMPKLTIVVVDTIPVELKSSYMVWSWFIYVLSANLLLVIPLLWVAAWWSLRPIEALAKEVRELEEHNRELLNPATTRELTSLVRNLNRLLKSERERYDKYRTTLTDLTHSLKTPLXXLQXXLRSLRSEKMSVSDAEPVMLEQISRISQQIGYYLHRASMRGGTLLSRELHPVAPLLDNLTSALNKVYQRKGVNISLDISPEISFVGEQNDFVEVMGNVLDNACKYCLEFVEISARQTDEHLYIVVEDDGPGIPLSKREVIFDRGQRVDTLRPGQGVGLAVAREITEQYEGKIVAGESMLGGARMEVIFGRQHSAPKDE

Variants of: B1
Assay: enrichment ratio after two sorts for PhoP signalling (ratio (wild type AVST 3.29)); higher = more functional
Settings: with PhoP (E. coli)

Row | Variant | enrichment ratio
1 | FPWL | ≤ 0.25
2 | QCLD | ≤ 0.25
3 | AHGL | ≤ 0.25
4 | GEYL | ≤ 0.25
5 | LLIK | ≤ 0.25
6 | EFVM | ≤ 0.25
7 | DTEP | ≤ 0.25
8 | NVPD | ≤ 0.25
9 | WDSC | ≤ 0.25
10 | NEDA | ≤ 0.25
11 | IDVG | ≤ 0.25
12 | RMLW | ≤ 0.25
13 | FWFA | ≤ 0.25
14 | HKPY | ≤ 0.25
15 | WQIF | ≤ 0.25
16 | IQEC | ≤ 0.25
17 | TVIC | ≤ 0.25
18 | VMGD | ≤ 0.25
19 | LQLR | ≤ 0.25
20 | ARCI | 6.48
21 | ADCS | ≤ 0.25
22 | DAEG | ≤ 0.25
23 | LMIK | ≤ 0.25
24 | SQGD | ≤ 0.25

Row | Variant | enrichment ratio
25 | YPCW | ≤ 0.25
26 | EDQQ | ≤ 0.25
27 | SYQS | ≤ 0.25
28 | NSDQ | ≤ 0.25
29 | RLHD | ≤ 0.25
30 | SWCN | ≤ 0.25
31 | LFSH | ≤ 0.25
32 | TWKF | ≤ 0.25
33 | QMLM | ≤ 0.25
34 | HFYT | ≤ 0.25
35 | EPTG | ≤ 0.25
36 | DDLY | ≤ 0.25
37 | NKEI | ≤ 0.25
38 | PLVS | ≤ 0.25
39 | YIKW | ≤ 0.25
40 | EALK | ≤ 0.25
41 | DHKL | ≤ 0.25
42 | AKQG | ≤ 0.25
43 | VSWV | 1.62
44 | CSHW | ≤ 0.25
45 | WGSM | ≤ 0.25
46 | WMYP | ≤ 0.25
47 | YKCN | ≤ 0.25
48 | YTVA | ≤ 0.25

Row | Variant | enrichment ratio
49 | TFIG | ≤ 0.25
50 | PWFP | ≤ 0.25
51 | WPHH | ≤ 0.25
52 | FSNE | ≤ 0.25
53 | GNRR | ≤ 0.25
54 | LRDE | ≤ 0.25
55 | PFMQ | ≤ 0.25
56 | RYQL | ≤ 0.25
57 | YSAC | ≤ 0.25
58 | EAKC | ≤ 0.25
59 | YLTC | ≤ 0.25
60 | MTHI | 0.77
61 | MEAV | 7.57
62 | FQKI | ≤ 0.25
63 | MHML | ≤ 0.25
64 | WAAN | ≤ 0.25
65 | FMPR | ≤ 0.25
66 | HIHR | ≤ 0.25
67 | TAPE | ≤ 0.25
68 | YFEK | ≤ 0.25
69 | RQGV | ≤ 0.25
70 | MVFC | ≤ 0.25
71 | NFSE | ≤ 0.25
72 | HFMC | ≤ 0.25

Row | Variant | enrichment ratio
73 | YMMW | ≤ 0.25
74 | VKWE | ≤ 0.25
75 | WARM | ≤ 0.25
76 | VFMQ | ≤ 0.25
77 | NNNP | ≤ 0.25
78 | VTFS | ≤ 0.25
79 | GIRH | ≤ 0.25
80 | FMVP | ≤ 0.25
81 | LHDT | ≤ 0.25
82 | ETCV | ≤ 0.25
83 | LNFP | ≤ 0.25
84 | MKFE | ≤ 0.25
85 | PDGF | ≤ 0.25
86 | FCTD | ≤ 0.25
87 | LIIS | ≤ 0.25
88 | YSTQ | ≤ 0.25
89 | HMKF | ≤ 0.25
90 | WLPQ | ≤ 0.25
91 | WNGN | ≤ 0.25
92 | RQRG | ≤ 0.25
93 | HVIP | ≤ 0.25
94 | PRQS | ≤ 0.25
95 | FYAV | ≤ 0.25
96 | YEKI | ≤ 0.25

Row | Variant | enrichment ratio
97 | QCWK | ≤ 0.25
98 | HFWM | ≤ 0.25
99 | WMCN | ≤ 0.25
100 | YTFI | ≤ 0.25
101 | VNLE | ≤ 0.25
102 | ADDY | ≤ 0.25
103 | VNVG | 0.357
104 | LDYA | ≤ 0.25
105 | LVMK | ≤ 0.25
106 | GPCG | ≤ 0.25
107 | PPME | ≤ 0.25
108 | YSGF | ≤ 0.25
109 | QKFH | ≤ 0.25
110 | DQCA | ≤ 0.25
111 | SCAQ | 3.78
112 | GFTI | ≤ 0.25
113 | FHDF | ≤ 0.25
114 | VYRL | ≤ 0.25
115 | HWWS | ≤ 0.25
116 | AWPE | ≤ 0.25
117 | HQII | ≤ 0.25
118 | TSWC | 17.5
119 | HSHK | ≤ 0.25
120 | WFPQ | ≤ 0.25

Row | Variant | enrichment ratio
121 | EKPN | ≤ 0.25
122 | TCEA | ≤ 0.25
123 | AMNS | ≤ 0.25
124 | LHLW | ≤ 0.25
125 | RCIC | ≤ 0.25
126 | AGKA | ≤ 0.25
127 | VESW | ≤ 0.25
128 | LPVT | ≤ 0.25
129 | SAAS | 4.35
130 | HVIN | ≤ 0.25
131 | WEGP | ≤ 0.25
132 | YILS | 0.603
133 | PYTC | ≤ 0.25
134 | STNN | 2.04
135 | LTPV | ≤ 0.25
136 | MPYL | ≤ 0.25
137 | VAKS | ≤ 0.25
138 | SKWS | 0.766
139 | PAHA | ≤ 0.25
140 | PWEP | ≤ 0.25
141 | ICRW | ≤ 0.25
142 | WGKN | ≤ 0.25
143 | IDRH | ≤ 0.25
144 | IYRA | ≤ 0.25

Row | Variant | enrichment ratio
145 | WPVA | ≤ 0.25
146 | VKIE | ≤ 0.25
147 | KLMF | ≤ 0.25
148 | DCMD | ≤ 0.25
149 | HNMV | ≤ 0.25
150 | YFHN | ≤ 0.25
151 | HHDL | ≤ 0.25
152 | KAWP | ≤ 0.25
153 | SDWW | ≤ 0.25
154 | GESQ | 4.33
155 | NIDH | ≤ 0.25
156 | ECIS | ≤ 0.25
157 | NYQF | ≤ 0.25
158 | RHED | ≤ 0.25
159 | AMCA | 19.4
160 | YHNW | ≤ 0.25
161 | MEAN | 32.4
162 | SIVW | ≤ 0.25
163 | HGIM | 3.13
164 | QFND | ≤ 0.25
165 | RPMC | ≤ 0.25
166 | FTDK | ≤ 0.25
167 | EFHI | ≤ 0.25
168 | HPNF | ≤ 0.25

Row | Variant | enrichment ratio
169 | ADID | ≤ 0.25
170 | PSVQ | ≤ 0.25
171 | WHYC | ≤ 0.25
172 | EMDS | ≤ 0.25
173 | RFRN | ≤ 0.25
174 | IYVD | ≤ 0.25
175 | SVPT | ≤ 0.25
176 | NHMI | ≤ 0.25
177 | HMLR | ≤ 0.25
178 | WTVK | ≤ 0.25
179 | SIAE | 1.19
180 | PACI | ≤ 0.25
181 | FFAS | ≤ 0.25
182 | ASLR | 3.29
183 | FLCR | ≤ 0.25
184 | FMAG | ≤ 0.25
185 | WNYS | ≤ 0.25
186 | GIHQ | ≤ 0.25
187 | RWCL | ≤ 0.25
188 | HHCR | ≤ 0.25
189 | PYCP | ≤ 0.25
190 | WMQL | ≤ 0.25
191 | CSYH | ≤ 0.25
192 | GRML | ≤ 0.25

Row | Variant | enrichment ratio
193 | RDCW | ≤ 0.25
194 | NTPH | ≤ 0.25
195 | TSHL | 8.01
196 | PGAD | ≤ 0.25
197 | RRPE | ≤ 0.25
198 | NLTE | ≤ 0.25
199 | KFML | ≤ 0.25
200 | DPWE | ≤ 0.25
201 | GMNP | ≤ 0.25
202 | YDTE | ≤ 0.25
203 | PTKG | ≤ 0.25
204 | CPPS | ≤ 0.25
205 | FQHN | ≤ 0.25
206 | SAEL | ≤ 0.25
207 | FWWE | ≤ 0.25
208 | DRNI | ≤ 0.25
209 | SYFW | ≤ 0.25
210 | MSCI | 16.7
211 | QMAL | 0.702
212 | KCWF | ≤ 0.25
213 | TQSL | 8.69
214 | WYCW | ≤ 0.25
215 | NKPV | ≤ 0.25
216 | WEKP | ≤ 0.25

Row | Variant | enrichment ratio
217 | QRQG | ≤ 0.25
218 | FVST | ≤ 0.25
219 | WCFF | ≤ 0.25
220 | FIGY | ≤ 0.25
221 | HTHV | ≤ 0.25
222 | NHNH | ≤ 0.25
223 | HHFD | ≤ 0.25
224 | QALA | 1.57
225 | PEIR | ≤ 0.25
226 | GYFT | ≤ 0.25
227 | VDHN | ≤ 0.25
228 | EWCL | ≤ 0.25
229 | SCCW | 5.25
230 | SHRD | ≤ 0.25
231 | KIPK | ≤ 0.25
232 | GRFN | ≤ 0.25
233 | EEYQ | ≤ 0.25
234 | FTSS | ≤ 0.25
235 | QMFN | ≤ 0.25
236 | DTEK | ≤ 0.25
237 | FEHF | ≤ 0.25
238 | VGMT | ≤ 0.25
239 | RAYC | ≤ 0.25
240 | FDTQ | ≤ 0.25

Row | Variant | enrichment ratio
241 | LEDQ | ≤ 0.25
242 | TMYE | ≤ 0.25
243 | VRRE | ≤ 0.25
244 | CSLT | 11.7
245 | VPCC | ≤ 0.25
246 | KPVI | ≤ 0.25
247 | WDHL | ≤ 0.25
248 | EIGL | ≤ 0.25
249 | PDFK | ≤ 0.25
250 | PPSH | ≤ 0.25
251 | ETCK | ≤ 0.25
252 | KMYE | ≤ 0.25
253 | TRGD | ≤ 0.25
254 | HCCQ | ≤ 0.25
255 | IKDI | ≤ 0.25
256 | SVNL | ≤ 0.25
257 | NLCD | ≤ 0.25
258 | PVLD | ≤ 0.25
259 | PLKQ | ≤ 0.25
260 | SVTT | 1.43
261 | SCGP | ≤ 0.25
262 | TVPN | ≤ 0.25
263 | QLYV | ≤ 0.25
264 | WVPE | ≤ 0.25

Row | Variant | enrichment ratio
265 | YGHD | ≤ 0.25
266 | HYAM | ≤ 0.25
267 | SNRF | ≤ 0.25
268 | DTIW | ≤ 0.25
269 | CFNF | ≤ 0.25
270 | NCVN | ≤ 0.25
271 | ADHQ | ≤ 0.25
272 | WWFS | ≤ 0.25
273 | PFAS | ≤ 0.25
274 | RQTK | ≤ 0.25
275 | IYFI | ≤ 0.25
276 | KFAE | ≤ 0.25
277 | ISPM | ≤ 0.25
278 | YSMR | ≤ 0.25
279 | PGYG | ≤ 0.25
280 | HMFQ | ≤ 0.25
281 | SASK | ≤ 0.25
282 | NVCN | ≤ 0.25
283 | AHSD | ≤ 0.25
284 | NFWH | ≤ 0.25
285 | AQDN | ≤ 0.25
286 | MNHA | ≤ 0.25
287 | WKEV | ≤ 0.25
288 | SYFE | ≤ 0.25

Row | Variant | enrichment ratio
289 | DINL | ≤ 0.25
290 | AKKN | ≤ 0.25
291 | TFQS | ≤ 0.25
292 | YTHE | ≤ 0.25
293 | HRGV | ≤ 0.25
294 | SWPN | ≤ 0.25
295 | IEGV | ≤ 0.25
296 | FRII | ≤ 0.25
297 | PRQP | ≤ 0.25
298 | HEIP | ≤ 0.25
299 | LYNQ | ≤ 0.25
300 | DRTN | ≤ 0.25
301 | HNEY | ≤ 0.25
302 | APLK | ≤ 0.25
303 | WFLT | ≤ 0.25
304 | AVAY | 10.3
305 | SWDC | ≤ 0.25
306 | VHSA | ≤ 0.25
